From the supplement of paper PMC8728848
This is one part of the list.

Legend:
Assay in all cases: glycan array binding signal (z-score within array); higher = stronger binding
Settings in all cases: glycan notation: IUPAC condensed, linker removed
[1] = target: Gal3S(b1-3)[Fuc(a1-4)]GlcNAc
How it was run: (§1)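 The binding signal is a Z-score computed within each array and averaged over linkers. Arrays of the same protein sequence at different concentrations or buffers were also averaged together. Data originate from 3228 arrays in the Consortium for Functional Glycomics database, kept only where the protein sequence was available.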

Gal3S(b1-4)Glc = target: Gal3S(b1-4)Glc
How it was run: as §1

Gal3S(b1-4)Glc6S = target: Gal3S(b1-4)Glc6S
How it was run: as §1

Gal3S(b1-4)GlcNAc = target: Gal3S(b1-4)GlcNAc
How it was run: as §1

[2] = target: Gal3S(b1-4)[Fuc(a1-3)]Glc6S
How it was run: as §1

[3] = target: Gal3S(b1-4)[Fuc(a1-3)]GlcNAc
How it was run: as §1

[4] = target: Gal3S(b1-4)[Fuc(a1-3)]GlcNAc6S
How it was run: as §1

Gal3S4S(b1-4)GlcNAc = target: Gal3S4S(b1-4)GlcNAc
How it was run: as §1

Gal3S6S(b1-4)GlcNAc = target: Gal3S6S(b1-4)GlcNAc
How it was run: as §1

Gal3S6S(b1-4)GlcNAc6S = target: Gal3S6S(b1-4)GlcNAc6S
How it was run: as §1

Gal4S(b1-4)GlcNAc = target: Gal4S(b1-4)GlcNAc
How it was run: as §1

Gal4S6S(b1-4)GlcNAc = target: Gal4S6S(b1-4)GlcNAc
How it was run: as §1

Gal6P(b1-4)GlcNAc = target: Gal6P(b1-4)GlcNAc
How it was run: as §1

Gal6S(b1-3)GlcNAc = target: Gal6S(b1-3)GlcNAc
How it was run: as §1

Gal6S(b1-3)GlcNAc6S = target: Gal6S(b1-3)GlcNAc6S
How it was run: as §1

Gal6S(b1-4)Glc = target: Gal6S(b1-4)Glc
How it was run: as §1

Gal6S(b1-4)Glc6S = target: Gal6S(b1-4)Glc6S
How it was run: as §1

Gal6S(b1-4)GlcNAc = target: Gal6S(b1-4)GlcNAc
How it was run: as §1

Gal6S(b1-4)GlcNAc6S = target: Gal6S(b1-4)GlcNAc6S
How it was run: as §1

GalNAc(a1-3)Gal = target: GalNAc(a1-3)Gal
How it was run: as §1

GalNAc(a1-3)GalNAc = target: GalNAc(a1-3)GalNAc
How it was run: as §1

[5] = target: GalNAc(a1-3)GalNAc(b1-3)Gal(a1-4)Gal(b1-4)Glc
How it was run: as §1

[6] = target: GalNAc(a1-3)GalNAc(b1-3)Gal(a1-4)Gal(b1-4)GlcNAc
How it was run: as §1

GalNAc(b1-3)Gal = target: GalNAc(b1-3)Gal
How it was run: as §1

[7] = target: GalNAc(b1-3)Gal(a1-4)Gal(b1-4)GlcNAc
How it was run: as §1

[8] = target: GalNAc(b1-3)Gal(a1-4)Gal(b1-4)GlcNAc(b1-3)Gal(b1-4)Glc
How it was run: as §1

[9] = target: GalNAc(b1-3)Gal(a1-6)Gal(b1-4)Glc
How it was run: as §1

GalNAc(b1-3)GalNAc = target: GalNAc(b1-3)GalNAc
How it was run: as §1

GalNAc(b1-3)GlcNAc = target: GalNAc(b1-3)GlcNAc
How it was run: as §1

GalNAc(b1-4)Gal(b1-4)Glc = target: GalNAc(b1-4)Gal(b1-4)Glc
How it was run: as §1

GalNAc(b1-4)GlcNAc = target: GalNAc(b1-4)GlcNAc
How it was run: as §1

[10] = target: GalNAc(b1-4)GlcNAc(b1-2)Man
How it was run: as §1

[11] = target: GalNAc(b1-4)GlcNAc(b1-2)Man(a1-3)[GalNAc(b1-4)GlcNAc(b1-2)Man(a1-6)]Man(b1-4)GlcNAc(b1-4)GlcNAc
How it was run: as §1

[12] = target: GalNAc(b1-4)GlcNAc(b1-3)GalNAc(b1-4)GlcNAc
How it was run: as §1

GalNAc(b1-4)GlcNAc6S = target: GalNAc(b1-4)GlcNAc6S
How it was run: as §1

GalNAc(b1-6)GalNAc = target: GalNAc(b1-6)GalNAc
How it was run: as §1

GalNAc3S(b1-4)GlcNAc = target: GalNAc3S(b1-4)GlcNAc
How it was run: as §1

B1: Epa6 (Candida glabrata), Q6DTM7_CANGB (protein)
chain: MGSSHHHHHHSSGLVPRGSHMKDDYSSSLSNNNLGWTDPTEFPLGCSPNVTTPKNGLSMELYSYDYLKSGSNPCWDAAYLDPNYPRTGYKSHRLLAKVENVAGNINFYYHAPMGCTSLFDTLPQAYNYRTPLTMTNFTMLLYGYFKPKVTGYHTFTISADDLLFVNFGAGNAFDCCKRESSADDFGNYQAYAVWGSQTAKDDLTVHLDAGLYYPIRIFFNNRDNDGALSLTLKTESDPNPVIDFSDYFYSFDDTKDGCPGLVSYDTS
- glycan array binding signal (z-score) [1]: -0.276
- glycan array binding signal (z-score) (Gal3S(b1-4)Glc): -0.284
- glycan array binding signal (z-score) (Gal3S(b1-4)Glc6S): -0.267
- glycan array binding signal (z-score) (Gal3S(b1-4)GlcNAc): -0.274
- glycan array binding signal (z-score) [2]: -0.067
- glycan array binding signal (z-score) [3]: -0.295
- glycan array binding signal (z-score) [4]: -0.254
- glycan array binding signal (z-score) (Gal3S4S(b1-4)GlcNAc): -0.27
- glycan array binding signal (z-score) (Gal3S6S(b1-4)GlcNAc): -0.306
- glycan array binding signal (z-score) (Gal3S6S(b1-4)GlcNAc6S): -0.263
- glycan array binding signal (z-score) (Gal4S(b1-4)GlcNAc): -0.326
- glycan array binding signal (z-score) (Gal4S6S(b1-4)GlcNAc): 2.41
- glycan array binding signal (z-score) (Gal6P(b1-4)GlcNAc): -0.315
- glycan array binding signal (z-score) (Gal6S(b1-3)GlcNAc): -0.223
- glycan array binding signal (z-score) (Gal6S(b1-3)GlcNAc6S): -0.263
- glycan array binding signal (z-score) (Gal6S(b1-4)Glc): -0.229
- glycan array binding signal (z-score) (Gal6S(b1-4)Glc6S): -0.251
- glycan array binding signal (z-score) (Gal6S(b1-4)GlcNAc): -0.24
- glycan array binding signal (z-score) (Gal6S(b1-4)GlcNAc6S): -0.303
- glycan array binding signal (z-score) (GalNAc(a1-3)Gal): -0.33
- glycan array binding signal (z-score) (GalNAc(a1-3)GalNAc): -0.326
- glycan array binding signal (z-score) [5]: -0.324
- glycan array binding signal (z-score) [6]: -0.277
- glycan array binding signal (z-score) (GalNAc(b1-3)Gal): -0.321
- glycan array binding signal (z-score) [7]: -0.126
- glycan array binding signal (z-score) [8]: -0.09
- glycan array binding signal (z-score) [9]: -0.309
- glycan array binding signal (z-score) (GalNAc(b1-3)GalNAc): -0.323
- glycan array binding signal (z-score) (GalNAc(b1-3)GlcNAc): -0.309
- glycan array binding signal (z-score) (GalNAc(b1-4)Gal(b1-4)Glc): -0.277
- glycan array binding signal (z-score) (GalNAc(b1-4)GlcNAc): -0.234
- glycan array binding signal (z-score) [10]: -0.328
- glycan array binding signal (z-score) [11]: -0.276
- glycan array binding signal (z-score) [12]: -0.327
- glycan array binding signal (z-score) (GalNAc(b1-4)GlcNAc6S): -0.325
- glycan array binding signal (z-score) (GalNAc(b1-6)GalNAc): -0.305
- glycan array binding signal (z-score) (GalNAc3S(b1-4)GlcNAc): -0.313
